According to PubChem BioAssay AID411 (National Center for Advancing Translational Sciences (NCATS), 2006):
Among all 72,000 compounds or so, about 1,600 (2.2%) were called active. The shares of active, inactive and inconclusive entries below differ from those in the screen. The call rests on the fitted dose curve; in most records, active means well fitted inhibition curve with a large enough effect; inconclusive means small, poorly fitted or top-dose-only effect; inactive means flat fitted curve, though single readings scatter. No potency is given beside an inconclusive call; the fits are too rough.

biological target: Luciferin 4-monooxygenase (Photinus pyralis) (UniProt P08659); test: qHTS Assay for Inhibitors of Firefly Luciferase; conditions: purified firefly luciferase, luminescence, 8 min; series mostly up to 57.1 µM; further: nearly all actives have a fitted effect of over 40% in size
UniProt P08659, sequence (P08659 whole entry, looked up): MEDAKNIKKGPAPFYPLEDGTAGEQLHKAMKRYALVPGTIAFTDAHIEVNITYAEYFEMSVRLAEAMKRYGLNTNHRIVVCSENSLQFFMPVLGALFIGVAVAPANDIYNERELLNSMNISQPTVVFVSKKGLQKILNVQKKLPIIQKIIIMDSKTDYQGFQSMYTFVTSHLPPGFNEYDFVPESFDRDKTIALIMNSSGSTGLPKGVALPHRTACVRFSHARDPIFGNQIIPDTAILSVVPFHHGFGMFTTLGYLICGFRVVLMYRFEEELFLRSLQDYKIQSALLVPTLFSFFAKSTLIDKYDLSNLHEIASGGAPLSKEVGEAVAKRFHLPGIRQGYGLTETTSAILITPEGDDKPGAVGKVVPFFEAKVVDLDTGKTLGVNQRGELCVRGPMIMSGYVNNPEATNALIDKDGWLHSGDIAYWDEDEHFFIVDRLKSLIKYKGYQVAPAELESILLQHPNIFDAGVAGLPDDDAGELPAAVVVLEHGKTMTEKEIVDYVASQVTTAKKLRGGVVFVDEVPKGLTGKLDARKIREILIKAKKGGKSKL
Procedure, shortened: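 Titration-based qHTS; buffer 50 mM imidazole pH 7.2, 50 mM KCl, 7 mM MgCl2, 10 uM ATP, 0.01% Tween 20, 0.05% BSA; luciferase/luciferin detector mix added after compound; 8 min, ambient; luminescence.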
On the % scale 0 is the no-effect control and ±100 the full control effect; potency means the concentration at half of the fitted maximal effect; tags describe the fitted curve by direction and shape.

**Q.** `C=CC[C@@H](C(=O)O)c1ccccc1` was tested. Which activity change, negative = inhibition did it give?
**A.** The activity change, negative = inhibition was inactive: -0.418% [at 11.4 µM].

**Q.** With `C=C(C)COc1ccc(-c2nc(N)ncc2Oc2ccccc2OC)c(O)c1` as the compound, how does the Potency read?
**A.** Its Potency is inconclusive [inhibitor, partial curve].

**Q.** With `CS(=O)(=O)c1ccc2nc(NC(=O)C3COc4ccccc4O3)sc2c1` (stereo unspecified) as the compound, how does the Potency read?
**A.** The Potency was inconclusive [inhibitor, partial curve].

**Q.** With `Clc1ccc(-n2ncc3c(NCCN4CCOCC4)ncnc32)cc1` as the compound, how does the Potency read?
**A.** Its Potency is inconclusive [inhibitor, partial curve].

**Q.** Which Potency does the source give for `CCN1CCN(C(=O)C(C)N(c2ccc(C)cc2)S(C)(=O)=O)CC1` (stereo unspecified) here?
**A.** Its Potency is “inactive”.

**Q.** `COc1cc(NC(=O)C2CCCCC2)c(OC)cc1NC(=O)CN1CCCCC1` was tested. Which Potency did it give?
**A.** The Potency was inconclusive [inhibitor, partial curve].

**Q.** `c1ccc2c(c1)nc(Nc1ccc3c(c1)OCO3)c1nnnn12` was tested. Which Potency did it give?
**A.** Its Potency is inconclusive [inhibitor, partial curve].

**Q.** How did the Potency turn out when `COc1ccc(NC(=O)c2ccc(N(C)S(C)(=O)=O)cc2)cc1OC` was run?
**A.** The Potency was inconclusive [inhibitor, single point].

**Q.** With `Clc1ccc2c(c1)N(CCCN1CCCC13CCCCC3)c1ccccc1S2` as the compound, how does the activity change, negative = inhibition read?
**A.** The activity change, negative = inhibition was inactive: 5.2% [at 11.4 µM].

**Q.** Which Potency does the source give for `CSc1ccc(C2Nc3ccccc3-c3cc(C)nn32)cc1` (stereo unspecified) here?
**A.** Its Potency is inconclusive [inhibitor, single point].

**Q.** With `Cc1cccc(NC(=O)c2cnc3sccn3c2=O)c1` as the compound, how does the Potency read?
**A.** Its Potency is active: 10 µM.

**Q.** For `Cc1ccc(-c2csc(NC(=O)c3cccc(N4C(=O)CCC4=O)c3)n2)o1`, which Potency is on record?
**A.** The Potency was inconclusive [inhibitor, partial curve].

**Q.** For `CC1CCCCC1NC(=O)Cn1nnc(-c2ccc(Cl)cc2)n1` (stereo unspecified), which Potency is on record?
**A.** The Potency was “inactive”.

**Q.** With `CCN(CC)c1ccc(NC(=O)c2cccc(C)c2OC)c(C)c1` as the compound, how does the Potency read?
**A.** The Potency was inconclusive [inhibitor, single point].

**Q.** For `Cc1cc(NS(=O)(=O)c2ccc(NC(=O)c3ccco3)cc2)no1`, which Potency is on record?
**A.** The Potency was “inactive”.

**Q.** With `CCOC(=O)CNC(=O)c1cc(-c2ccc3c(c2)OCCO3)oc1C` as the compound, how does the Potency read?
**A.** The Potency was inconclusive [inhibitor, single point].

**Q.** Which Potency does the source give for `CCOC(=O)CNC(=O)Nc1nnc(-c2ccc(OCC)cc2)o1` here?
**A.** Its Potency is inconclusive [inhibitor, partial curve].

**Q.** Which Potency does the source give for `Cc1ccc2c(c1)-c1cc(C)nn1C(c1sccc1C)N2` (stereo unspecified) here?
**A.** The Potency was inconclusive [inhibitor, single point].

**Q.** `Cc1c(C(=O)NCc2ccco2)sc2nc(-c3ccccc3)cn12` was tested. Which Potency did it give?
**A.** The Potency was inconclusive [inhibitor, partial curve].

**Q.** With `COc1cccc(Cn2c(=O)cnc3cnc(Nc4cccc(OC)c4)nc32)c1` as the compound, how does the activity change, negative = inhibition read?
**A.** The activity change, negative = inhibition was inactive: -0.109% [at 11.4 µM].

**Q.** How did the Potency turn out when `Cc1cccc(Nc2ncc3c(n2)CC(C)CC3=O)c1` (stereo unspecified) was run?
**A.** Its Potency is inconclusive [inhibitor, single point].

**Q.** With `COc1cccc(C(=O)Nc2nnc(C(C)C)s2)c1` as the compound, how does the Potency read?
**A.** The Potency was inconclusive [inhibitor, single point].

**Q.** Which Potency does the source give for `Nc1nc(CSc2ccccn2)nc(Nc2ccccc2)n1` here?
**A.** Its Potency is active: 20 µM.

**Q.** How did the activity change, negative = inhibition turn out when `O=C1c2ccccc2C(=O)c2c1ccc(N1C(=O)c3ccccc3C1=O)c2-c1c(N2C(=O)c3ccccc3C2=O)ccc2c1C(=O)c1ccccc1C2=O` was run?
**A.** The activity change, negative = inhibition was inactive: 1.14% [at 11.4 µM].

**Q.** How did the Potency turn out when `O=C(N1CCOCC1)N1CCN(c2nc(-c3ccccc3)cs2)CC1` was run?
**A.** Its Potency is inconclusive [inhibitor, single point].

**Q.** With `COc1ccc(C(=O)Nc2cc(OC)ccc2OC)cc1` as the compound, how does the Potency read?
**A.** The Potency was active: 20 µM.

**Q.** `Oc1ccccc1-c1cc(-c2cccc(F)c2)n[nH]1` was tested. Which Potency did it give?
**A.** Its Potency is inconclusive [inhibitor, partial curve].

**Q.** For `c1csc(CNc2ccnc(-c3ccc4c(c3)OCO4)n2)c1`, which Potency is on record?
**A.** Its Potency is inconclusive [inhibitor, single point].

**Q.** With `O=C(Nc1ccc(NC(=O)C2CCCCC2)cn1)c1ccco1` as the compound, how does the Potency read?
**A.** Its Potency is active: 5.01 µM.

**Q.** Which Potency does the source give for `COc1ccc(C(=O)Nc2nc3ccccc3[nH]2)cc1OC` here?
**A.** Its Potency is active: 25.1 µM.

**Q.** With `O=C(NCc1ccco1)c1cc2c(s1)CCCCC2` as the compound, how does the Potency read?
**A.** The Potency was inconclusive [inhibitor, partial curve].

**Q.** Which Potency does the source give for `Fc1ccc(-c2nnc(-c3ccc(Cl)cc3Cl)o2)cc1` here?
**A.** The Potency was active: 1.26 µM.

**Q.** For `CC(=O)CCc1oc2ccc(NC(C)=O)cc2c1-c1ccc(C)o1`, which Potency is on record?
**A.** Its Potency is inconclusive [inhibitor, single point].

**Q.** With `COc1ccc(C(O)P(=O)(OC2CCCCC2)c2ccc(N(C)C)cc2)cc1OC` (stereo unspecified) as the compound, how does the Potency read?
**A.** The Potency was “inactive”.

**Q.** How did the Potency turn out when `c1ccc2oc(SCc3nc4ccccc4s3)nc2c1` was run?
**A.** The Potency was active: 15.8 µM.

**Q.** With `O=C(c1cnn2ccccc12)N1CCc2ccccc21` as the compound, how does the Potency read?
**A.** Its Potency is active: 12.6 µM.

**Q.** Which Potency does the source give for `c1ccc2nc3c(nc2c1)[nH]c1ccccc13` here?
**A.** Its Potency is active: 15.8 µM.

**Q.** Which Potency does the source give for `NC(N)=NC(N)=NCCc1ccccc1` here?
**A.** Its Potency is “inactive”.

**Q.** `Cc1csc(-c2coc3cc(O)cc(C)c3c2=O)n1` was tested. Which Potency did it give?
**A.** The Potency was inconclusive [inhibitor, partial curve].

**Q.** With `N#CCCn1c(=O)c(-c2ccc(Cl)cc2)nc2cnc(N3CCNCC3)nc21` as the compound, how does the activity change, negative = inhibition read?
**A.** Its activity change, negative = inhibition is inactive: -0.537% [at 11.4 µM].

**Q.** With `OCCN(CCO)CC(O)Cn1c2ccccc2c2ccccc21` (stereo unspecified) as the compound, how does the Potency read?
**A.** Its Potency is “inactive”.

**Q.** With `CN1C(=O)NC(c2ccccc2)C2=C1CN(c1cccc(C(F)(F)F)c1)C2=O` (stereo unspecified) as the compound, how does the Potency read?
**A.** The Potency was “inactive”.

**Q.** `CC1(C)CC(=O)C2=C(C1)Nc1ccccc1N=C2` was tested. Which Potency did it give?
**A.** Its Potency is inconclusive [inhibitor, single point].

**Q.** Which Potency does the source give for `O=C(CSc1nc2ccccc2[nH]1)c1ccco1` here?
**A.** Its Potency is inconclusive [inhibitor, single point].

**Q.** How did the Potency turn out when `CN(C(=O)c1cccc(N2C(=O)C3CC=CCC3C2=O)c1)C1CCCCC1` (stereo unspecified) was run?
**A.** The Potency was “inactive”.

**Q.** Which Potency does the source give for `O=C(Nc1ccncc1)c1ccc2c(c1)OCCO2` here?
**A.** The Potency was inconclusive [inhibitor, single point].

**Q.** How did the Potency turn out when `Cc1cc(NCCN2CCOCC2)n2ncc(-c3ccccc3)c2n1` was run?
**A.** The Potency was active: 20 µM.

**Q.** Which Potency does the source give for `C=CCSC1=N/C(=C\c2ccc3c(c2)OCO3)C(=O)S1` here?
**A.** Its Potency is “inactive”.

**Q.** For `N[C@@H](C(=O)O)c1ccc(C(=O)O)c(O)c1`, which Potency is on record?
**A.** The Potency was “inactive”.

**Q.** Which Potency does the source give for `CN(C)c1ccccc1C(=O)c1ccccc1N(C)C` here?
**A.** Its Potency is active: 25.1 µM.

**Q.** `FC(F)(F)c1ccccc1-c1cncnc1NCCN1CCOCC1` was tested. Which activity change, negative = inhibition did it give?
**A.** Its activity change, negative = inhibition is inactive: -12.1% [at 2.29 µM].
